From PubChem BioAssay AID1963576 (National Center for Advancing Translational Sciences (NCATS), 2024)
In all, about 46,000 compounds went through this assay and about 60 (0.1%) were called active. Roughly 3% stayed inconclusive and do not appear here. Calls follow the shape of the dose curve; as a rule, active = well fitted inhibition curve with a large enough effect; inconclusive = small, poorly fitted or top-dose-only effect; inactive = no such curve, though single readings can be large or run the other way. The list shows a part of the results.

Test: Primary qHTS assay for Inhibitors of ovarian cancer metastasis using an organotypic tumor microenvironment (TME) model. Also: nearly all actives have a fitted effect of over 65% in size.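 As to activity change, negative = inhibition: plate controls were DMSO wells for no effect and tomatine positive control wells for full effect.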
Conditions: SKOV3ip1-GFP adhesion/invasion on 3D omental model, fluorescence; series mostly up to 45.8 µM; activity change, negative = inhibition: at the top concentration
In short: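 qHTS, 4-pt dose (0.36-46 umol/L); SKOV3ip1-GFP, 1,200 cells/well, no FBS; primary omental fibroblast/mesothelial co-culture 48 h pre-grown; 2 h RT + 16 h 37 C; PBS wash, 4% PFA; GFP count 488/509 nm.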

SMILES	activity change, negative = inhibition	outcome
COC(=O)c1c(NC(=O)c2ccc(C(C)(C)C)cc2)sc2c1CCC(C)C2 (stereo not given)	inactive: -1.06%	
CC1(C)CC(=O)c2cc(-c3nc(-c4ccc(F)cc4)cs3)c(=O)[nH]c2C1	inactive: 0.669%	
CCN(C(=O)C(NS(=O)(=O)c1ccc(Br)s1)c1ccccc1)c1ccc(C)c(C)c1 (stereo not given)	inactive: 3.95%	
CCOc1ccc(NC(=O)c2c(NCc3cc(OC)c(OC)cc3OC)sc3c2CCCC3)cc1	inactive: -15.7%	
COC(=O)c1ccccc1NC(=O)C(Cc1ccccc1)N1Cc2ccccc2C1=O (stereo not given)	inactive: 1.94%	
Cc1cc(C)cc(OCC(=O)N2CCC(c3nc4ccccc4o3)CC2)c1		inactive
COc1ccc(C)cc1NC(=O)Cn1cc(S(=O)(=O)N2CCC(C)CC2)c2ccccc2c1=O		inactive
CCC(=O)N1c2ccccc2CC1C(=O)NCCN1CCN(c2cc(Cl)ccc2C)CC1 (stereo not given)	inactive: 2.3%	
COc1cccc(CC(=O)Nc2c(C(=O)N3CCN(c4ccccc4F)CC3)oc3ccccc23)c1	inactive: 6.28%	
COCCCNc1nc2c(c(=O)[nH]c(=O)n2C)n1CC(O)COc1ccc(Cl)cc1 (stereo not given)	inactive: -4.48%	
Cc1cc(C)c2c(=O)c3c(oc2c1)C(=O)N(CCCOC(C)C)C3c1ccccc1F (stereo not given)	inactive: -11.7%	
CCCC1=Nc2cc(C(=O)NC3CCCCC3)ccc2Sc2ccc(C)cc21	inactive: -7.54%	
N#C/C(=C\c1ccc(F)cc1)c1nc(-c2ccc(-c3ccccc3)cc2)cs1	inactive: -5.11%	
COc1ccc(CCNC(=O)Cn2c(=O)nc(-c3ccccc3)c3cc(Cl)ccc32)cc1OC	inactive: -6.5%	
CC(=O)c1cccc(NC(=O)c2ccc3c(c2)N(Cc2ccc(C)cc2)CCS3)c1	inactive: 6.74%	
O=S(=O)(c1ccccc1)n1nc(-c2ccc(Cl)cc2)nc1NCc1ccccc1		inactive
COc1ccc(NC(=O)Cn2c(-c3ccc(F)cc3)cc(C(C)=O)c2C)c(OC)c1	inactive: -0.409%	
CC(=O)Nc1ccc(S(=O)(=O)NCC2CCC(C(=O)NCCc3ccc(C)cc3)CC2)cc1 (stereo not given)	inactive: -8.86%	
CC(C)c1ccc(NC(=O)N2CCN(c3ccc(Cl)c(Cl)c3)CC2)cc1	inactive: -22.7%	
Cc1nc2c(-c3ccccc3)c(C)nn2c(C)c1CCC(=O)NCCc1ccccc1	inactive: 5.93%	
O=C(NCc1ccccc1Cl)C1CCCN(C(=O)c2cnn(-c3ccc(F)cc3)c2-n2cccc2)C1 (stereo not given)	inactive: 8.3%	
Cc1cccc(N2CCN(C(=O)c3cnc4c(C)cccn4c3=O)CC2C)c1 (stereo not given)		inactive
O=C(COc1cccc(Cl)c1)N1CCC(c2nc3ccccc3o2)CC1	inactive: -6.17%	
CCOc1ccc(NC(=O)CSc2nc3c([nH]c4ccccc43)c(=O)n2-c2cc(C)cc(C)c2)cc1	inactive: 5.73%	

SMILES	activity change, negative = inhibition	outcome
CCC(C)NC(=O)c1ccc2c(c1)nc1n2CCCCC1 (stereo not given)		inactive
COc1ccc(NC(=O)CSc2nc3c(oc4ccccc43)c(=O)n2-c2ccccc2)cc1OC		inactive
Cc1ccc(N2CCN(C(=O)c3c(C)oc4ncnc(N5CCCCC5)c34)CC2)c(C)c1	inactive: -2.98%	
O=C(NC1CC(=O)N(c2ccc(Cl)cc2)C1)C1CCCC1 (stereo not given)	inactive: -7.04%	
CCOC(=O)c1c(C)oc2c1cc(NS(=O)(=O)c1ccc(C)cc1)c1ccccc12	inactive: -2.51%	
O=C(CSc1nc(-c2ccccc2)no1)N1CCN(c2ccccc2)CC1	inactive: 0.159%	
CCOc1ccccc1NC(=O)c1cc(S(=O)(=O)N2CCOCC2)cn1C		inactive
CC(C)(C)OC(=O)N1CCC(c2c(C(=O)NCc3ccccc3)cnn2-c2ccc(F)cc2)CC1	inactive: 2.2%	
CN1CCN(C(=O)c2ccc3c(c2)N(Cc2ccc(F)cc2)C(=O)c2ccccc2S3=O)CC1 (stereo not given)	inactive: 3.89%	
CCC(=O)N1c2ccccc2C(C)(c2ccccc2)CC1(C)C (stereo not given)	inactive: 16.4%	
CC1(C)CC(=O)c2cc(-c3nc(-c4ccc(Cl)cc4)cs3)c(=O)[nH]c2C1	inactive: -0.474%	
CC(C)Oc1ccc(NC(=O)c2cc3ccccc3o2)cc1	inactive: -0.819%	
COc1ccc(CCNc2oc(COc3cccc(C)c3)nc2C#N)cc1OC	inactive: -5.74%	
CCCNC(=O)c1cnn2c(C(F)F)cc(-c3ccccc3)nc12		inactive
Cc1sc2c(c1C)c(=O)n(Cc1ccccc1)c(=O)n2CC(=O)N(C)c1ccccc1	inactive: 15.7%	
Cc1ccc(NC(=O)c2cc(S(=O)(=O)N3CCCCCC3)ccc2F)cc1F	inactive: 0.875%	
CCN1CCc2c(sc(-n3cccc3)c2C(C)NC(=O)Nc2cc(Cl)c(OC)cc2OC)C1 (stereo not given)	inactive: 0.563%	
CC(=O)N1CCc2cc(Br)cc(S(=O)(=O)NCCc3ccc(Cl)cc3)c21	inactive: 1.01%	
CC(=O)c1cccc(NC(=O)CCc2nc3cccnc3n2Cc2cccs2)c1	inactive: 3.09%	
CC1CCN(S(=O)(=O)c2ccc3c(ccc(=O)n3CC(=O)NCc3ccc(Cl)cc3)c2)CC1	inactive: 17.8%	
COc1ccc(-c2nc(Cn3c(=O)cc(-c4ccccc4)c4c(C)nn(C)c43)c(C)o2)cc1OC	inactive: -6.75%	
CC(C)Oc1ccc(CNC(=O)c2ccc3nc(C(C)C)oc3c2)cc1	inactive: -9.36%	
CN(C)c1ccc(C(=O)Nc2c(C(=O)NC(C)(C)C)oc3ccccc23)cc1	inactive: -14.9%	
Cc1cc(C)cc(NC(=O)C(CC(C)C)NC(=O)C2CCCCC2)c1 (stereo not given)	inactive: 3.17%	

SMILES	activity change, negative = inhibition	outcome
COc1ccc(Cl)cc1N=C1NC(=O)CC(C(=O)Nc2ccccc2C(F)(F)F)S1 (stereo not given)		inactive
CCn1c(C(=O)N2CCC(C(=O)N3CCN(c4ccc(OC)cc4)CC3)CC2)cc2sccc21	inactive: 12.6%	
COc1ccc(S(=O)(=O)N(CC(=O)Nc2cc(C)cc(C)c2)c2ccc(Cl)cc2)cc1		inactive
CCNc1nc(NC(C)(C)C)nc(Oc2ccc(=O)n(-c3ccccc3)n2)n1	inactive: 4.74%	
CCc1ccccc1N1CC(c2nc3ccccc3n2CCOc2ccc(Cl)c(C)c2)CC1=O (stereo not given)	inactive: -28.4%	
CCOC(=O)CSc1nc(-c2ccc(F)cc2)cc(C(F)(F)F)c1C#N	inactive: -1.93%	
COc1ccc(CCNc2nc3ccc(C)cc3n3cnnc23)cc1OC	inactive: 2.55%	
O=C(c1cccn1-c1nnc(N2CCCCC2)s1)N1CCN(c2ccc(Cl)cc2)CC1	inactive: -2.75%	
CC(=O)c1c(C)n(-c2ccc(Cl)cc2)c2ccc(OC(=O)COc3ccccc3)cc12	inactive: 1.57%	
CC(=O)c1cccc(NC(=O)c2ccc(Cl)c(S(=O)(=O)N3CCOCC3)c2)c1	inactive: -4.99%	
CC(C)(C)C1CCc2c(sc(NC(=O)c3ccccc3F)c2C(=O)NCc2ccco2)C1 (stereo not given)	inactive: -15.3%	
COc1ccccc1CNC(=O)CCCCn1c(=O)c2ccccc2n(Cc2ccccc2C)c1=O		inactive
Cc1cc(C)cc(C(=O)Nc2cccc(-c3nc4ncccc4o3)c2C)c1	inactive: 4.44%	
CCCc1cc(=O)[nH]c(Nc2ccccc2O)n1		inactive
O=C(NCCn1cc(SCc2ccccc2)c2ccccc21)c1cccs1	inactive: -16.1%	
CCc1nn2c(=O)cc(COC(=O)c3ccc4c(c3)OCO4)nc2s1	inactive: 27.9%	
COc1ccc(-c2nc3scc(CCNS(=O)(=O)c4c(C)cc(C)cc4C)n3n2)cc1OC		inactive
Cc1nn(-c2ccc(N3CCCC3)nn2)c(C)c1CCC(=O)NCc1ccccc1	inactive: -2.02%	
CN(Cc1ccccc1)S(=O)(=O)c1nnc(NC(=O)c2ccccc2Cl)s1		inactive
COc1ccc(C2=NS(=O)(=O)N(C)C(C(=O)Nc3ccc(OC(F)(F)F)cc3)=C2)cc1	inactive: 2.88%	
CCOC(=O)c1cc2c(=O)n3ccccc3nc2n(CCOC)c1=NC(=O)c1cc2ccccc2o1	inactive: 0.209%	
c1ccc(N2CCN(Cc3nnc(-c4ccc5c(c4)OCO5)o3)CC2)cc1	inactive: -17.2%	
COc1ccc(CNc2ncnc3c2cnn3-c2ccc(Cl)cc2)cc1	inactive: -2.45%	
CCOC(=O)c1c(C)oc2nc(C)nc(NCC3CCN(Cc4ccc(F)cc4)CC3)c12	inactive: -7.12%	

SMILES	activity change, negative = inhibition	outcome
NC(=O)c1ccc(-c2nc(-c3ccc4c(c3)OCO4)c(-c3ccccn3)[nH]2)cc1	inactive: -16.9%	
CC(NC(=O)CCCN1C(=O)CCn2nc(-c3cn(C)c4ccccc34)cc21)c1ccccc1 (stereo not given)	inactive: 1.97%	
COc1cccc(-c2ccc3c(N)c(C(=O)c4ccc(F)cc4)sc3n2)c1	inactive: 29.4%	
CCC(Oc1ccccc1)C(=O)N1CCN(Cc2cc(=O)n3nc(-c4cccc(C)c4)sc3n2)CC1 (stereo not given)	inactive: 4.14%	
CCOC(=O)c1ccc(N2CCN(c3cc(Cl)ccc3C)CC2)c(NC(=O)Nc2ccc(OCC)cc2)c1		inactive
Cc1cc(N2CCN(C)CC2)nc2ccc(NC(=O)Nc3ccc(F)cc3F)cc12	inactive: 2.46%	
Fc1ccc(-c2nc3c4c(-c5ccccc5)c(-c5ccccc5)oc4ncn3n2)cc1	inactive: -5.97%	
Cc1ccc(CSC2=Nc3ccccc3C3=NC(CCC(=O)NCc4cccs4)C(=O)N23)c(C)c1 (stereo not given)	inactive: -10.5%	
COc1ccc(Nc2ccc3cc(S(=O)(=O)N4CCCC4)ccc3n2)cc1OC	inactive: -4.52%	
O=C(Nc1ccc(Cl)c(-c2nc3ccccc3o2)c1)c1cccc2c(Cl)cccc12	inactive: 8.56%	
Cc1ccc(NC(=O)CSc2nncn3c2cc2sccc23)cc1F	inactive: -35%	
COc1cc(Cl)c(NC(=O)CC(C)S(=O)(=O)c2cc3c(cc2C)NC(=O)CO3)c(OC)c1 (stereo not given)		inactive
Cc1ccc(NS(=O)(=O)c2c(C)nc3sccn3c2=O)c(Cl)c1	inactive: -1.62%	
Cc1ccc(-n2c(=O)c3c(c4cc(C)ccc4n3C)n(CC(=O)NCC3CCCO3)c2=O)cc1 (stereo not given)	inactive: 5.17%	
Cc1cccc(NC(=O)CCn2nc(C)c3c(C)n(-c4ccccc4)nc3c2=O)c1C	inactive: -0.872%	
Cc1nn(-c2ccc(N3CCCC3)nn2)c(C)c1CCC(=O)Nc1ccccc1	inactive: -3%	
CC(C)c1ccc(NC(=O)c2cc(S(=O)(=O)N3CCc4ccccc4C3)ccc2F)cc1	inactive: -13.2%	
CCOc1ccc(CN2C(=O)c3ccccc3Sc3ccc(C(=O)NCCCN4CCOCC4)cc32)cc1		inactive
Cc1ccc(NC(=O)CCS(=O)(=O)c2ccc3nc(C)sc3c2)c(C)c1	inactive: 10.8%	
COc1ccc(S(=O)(=O)NCc2ccc3c(c2)CCN3C(C)=O)cc1OC	inactive: 1.77%	
CN(C)c1ncc(C(=O)NCc2ccccc2Cl)cn1	inactive: 5.25%	
CCOC(=O)c1ccc(N2CCN(c3ccc(F)cc3)CC2)c(NC(=O)Nc2ccc(CC)cc2)c1		inactive
CCOc1ccc(C(=O)Nc2ccc(NC(=O)c3ccccc3)cc2)cc1Br	inactive: 7.45%	
